# According to patent US9260382B2, “Methods of reducing virulence in bacteria” (priority 2010, dated 2016):
# Values joined by “and” are separate entries in the source; they are usually repeats but may differ in a detail not shown here. Identical values can stand only once. “Also recorded” adds a separate entry of the source. For part of these data: The name of at least one read-out is uncertain. For part of these data: At least one compound was matched to its structure with a doubt left. Some entries share one result that the patent states for a list of compounds.
# Legend:
# [1] = system: exoS promoter (T3SS); assay: exoS promoter-gfp reporter pATexoS, flow cytometry; format: cell-based, P. aeruginosa PA01; settings: PA01 (pATexoS), 250 μM, 6 h
# Protocol: (§1) To identify T3SS inhibitors of PA01, a promoter-probe vector pPROBE-AT containing the promoterless green fluorescent protein (gfp) gene was used to construct an exoS promoter-gfp plasmid reporter, pATexoS. PA01 containing pATexoS was cultured in T3SS-inducing medium containing dimethyl sulfoxide (DMSO; solvent of chemical compounds), or supplemented with 250 μM of each compound, and promoter activity was assessed at 6 h by measuring GFP intensity using flow cytometry. 101 compounds (58 synthesized and 43 commercially available) were screened. Compounds 027, 032, 101, and 149 repressed exoS expression at the final concentration of 250 μM by at least one standard deviation below the sample average (Z score≦−1) (FIG. 37 A-E). Z score (or standard score) indicates how many standard deviations an observation or datum is above or below the mean [z=(x−μ)/σ, where x is a raw score to be standardized, μ is the mean of the population, and σ is the standard deviation of the population].
# To determine the effective concentration of compounds, the dose-dependent effect of potential inhibitors on exoS expression and bacterial growth were tested. P. aeruginosa cells carrying pATexoS were pre-cultured in LB supplemented with 200 mM NaCl and transferred to fresh LB with 200 mM NaCl, 10 mM NTA, and various concentrations of compounds (20, 50, 100, and 250 μM) or DMSO for 6 h. […] At 50 μM dosage, both 027 and 101 inhibited exoS expression at similar levels, and this inhibitory effect increased as compound concentration increased (FIG. 38A and Table 17). […] These inhibitions/inductions of exoS expression are caused by the shifting bacterial population between low-state expression cells and high-state expression cells (FIG. 40).
# [2] = system: hrpA promoter (T3SS); assay: GFP reporter plasmid phrpA, flow cytometry (FACS) of hrpA promoter activity; format: cell-based, Dickeya dadantii 3937; settings: for mean fluorescence intensity of GFP, hrpA expression: D. dadantii 3937 (phrpA), MM + 100 μM compound; for GFP Mean Fluorescence Intensity, hrpA promoter: Ech3937 (phrpA), MM + 0.1 mM compound
# Protocol: FACS analysis of promoter activity of dspE, hrpA, hrpL, hrpN, and hrpS was carried out as described (Peng et al., 2006). Briefly, the wild-type Ech3937 and the mutant strains carrying the promoter reporter plasmid were grown on LB broth at 28° C. overnight and transferred to appropriate media. For FACS analysis, samples were collected by centrifugation, washed with 1× phosphate buffer saline (PBS) at 13,000 rpm for 1 min, and re-suspended in 1×PBS to ca 10^6 CFU/ml prior to being run in a FACS Calibur flow cytometer (BD Biosciences, CA). Three replicates were performed for each treatment.
# To identify potential compounds that repress activation of T3SS, analogs and isomers of TCA and intermediates of salicylic acid and phenypropanoid biosynthesis pathways in plants were further screened for their effect on Ech3937 hrpA expression by flow cytometry (Table 9). A green fluorescent protein (GFP) reporter plasmid phrpA (pProbe-AT derivative with PCR fragment containing hrpA promoter region) was constructed, resulting in a transcriptional fusion of hrpA promoter with GFP gene. Bacterial cells containing phrpA plasmid were grown in MM supplemented with 0.1 mM of each compound. GFP intensity, which is a measurement of hrpA promoter activity, was measured by flow cytometry.
# hrpA encodes the T3SS pilus required for protein translocation into plant cells. To test for an inhibitory effect on T3SS hrpA expression, the reporter plasmid phrpA was used to measure the effects of these compounds on hrpA expression. The reporter plasmid phrpA encodes a transcriptional fusion of the hrpA promoter controlling expression of green fluorescent protein (gfp). 50 μL of bacterial suspension of D. dadantii 3937 carrying the hrpA reporter (optical density at 600 nm OD600=1.0) was used as the initial inoculum and added to 5 mL of MM or MM supplemented with 100 μM of one of the compounds. The expression level of hrpA of these bacterial cells was measured by measuring GFP intensity of gated populations of the bacterial cells by flow cytometry and analyzed with Cell Quest software (BD Biosciences, San Jose, Calif.). The fluorescence intensities were an average GFP fluorescence intensity of total bacterial cells. Compounds were assayed two different times (12 and 24 h of bacterial growth) with T3SS minimal media (MM) as the control treatment for each set of experiment. Values presented in Table 14 are mean fluorescence intensity of GFP, representative of two experiments, presented as the average of three replicates with standard deviation (SD).
# [3] = system: hrpA promoter (T3SS); assay: hrpA promoter-probe phrpA in Erwinia amylovora 273, flow cytometry; format: cell-based; settings: Ea273 (phrpA), HIM + 100 μM compound
# Protocol: Wild-type Erwinia amylovora 273 was used in this study. The promoter-probe plasmid phrpA was constructed as follows. The hrpA promoter region of Erwinia amylovora 273 was amplified and cloned into pPROBE-NT to produce PhrpA. Plasmid PhrpA was electroporated into Erwinia amylovora 273. Expression of hrpA was analyzed using a FACS Calibur flow cytometer (BD Biosciences, CA). Wild-type Erwinia amylovora 273 containing phrpA was cultured in a hrp-inducing medium (HIM) containing dimethyl sulfoxide (DMSO; solvent of chemical compounds), or HIM supplemented with 100 μM of each compound, and promoter activity was assessed at 6 h and 9 h by measuring GFP intensity using flow cytometry (Table 19).
# [4] = system: P. aeruginosa; assay: P. aeruginosa bacterial growth with compound; format: cell-based, P. aeruginosa PA01
# Protocol: as §1
# To determine the effective concentration of compounds, the dose-dependent effect of potential inhibitors on exoS expression and bacterial growth were tested. P. aeruginosa cells carrying pATexoS were pre-cultured in LB supplemented with 200 mM NaCl and transferred to fresh LB with 200 mM NaCl, 10 mM NTA, and various concentrations of compounds (20, 50, 100, and 250 μM) or DMSO for 6 h. […]
structure (smiles),measurement,setting,value
"Nc1ccc(/C=C/C(=O)O)cc1 [Compound 027, trans-4-Aminocinnamic acid]",Z score of exoS expression,[1],≤ −1
"O=C(NO)c1ccccc1 [Compound 134, Benzhydroxamic acid]",Z score of exoS expression,[1],at least 4
"O=C(/C=C/c1ccc(O)cc1)NO [Compound 103, trans-4-Hydroxycinnamohydroxamic acid]","mean fluorescence intensity of GFP, hrpA expression",[2]; 12 h,8.7 ± 0.3 and 8.9 ± 0.7
same,"mean fluorescence intensity of GFP, hrpA expression",[2]; 24 h,11.9 ± 0.8 and 8.9 ± 0.2
same,Z score of exoS expression,[1],at least 4
"O=C(O)/C=C/c1ccc(-c2ccccc2)cc1 [Compound 108, trans-4-Phenylcinnamic acid]","Avg MFI ± SD, hrpA expression",[3]; 6 h,173.7 ± 7.9 and 197.7 ± 5.5
same,"Avg MFI ± SD, hrpA expression",[3]; 9 h,79.4 ± 1.8 and 99.3 ± 3.3
"O=C(O)/C=C/c1ccccc1 [Compound 001, trans-cinnamic acid]","GFP Mean Fluorescence Intensity, hrpA promoter","[2]; 12 h, listed as TCA",78 ± 0
same,"GFP Mean Fluorescence Intensity, hrpA promoter","[2]; 12 h, listed as t-Cinnamic acid",133.9 ± 12.9
"O=C(/C=C/c1cccc(Cl)c1)NO [Compound 149, trans-3-Chlorocinnamohydroxamic acid]",Z score of exoS expression,[1],≤ −1
"COC(=O)/C=C/c1ccc(O)cc1 [Compound 101, Methyl para-coumate]","inhibitory activity on T3SS gene (hrpA) expression, in words","[2]; D. dadantii 3937, reporter plasmid phrpA, 100 μM",showed inhibitory effect; also recorded: weak inhibitory activity
same,Z score of exoS expression,[1],≤ −1
same,"effect on bacterial growth, in words","[4]; P. aeruginosa, 250 μM",minor alterations in bacterial growth
same,"dose-dependent effect on P. aeruginosa growth, in words","[4]; various concentrations (up to 250 μM for 101, up to 500 μM for 027), FIG. 39",only minor effects on bacterial growth
"OC/C=C/c1ccccc1 [Compound 032, Cinnamyl alcohol]",Z score of exoS expression,[1],≤ −1
